Test results from article PMC4336329 (PLoS ONE, 2015).
Out of some 310,000 compounds screened, about 14,000 (4.5%) showed an effect of 50% or more. Effects have a minus sign here. The list shows a part of the results.

Target: human ether-à-go-go-related gene (hERG) potassium channel (human, UniProt Q12809)
Test: primary screen, population patch clamp on CHO cells stably expressing hERG
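Further: peak tail current of the secondary pulse compared with the same well before compound.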

human ether-à-go-go-related gene (hERG) potassium channel, sequence (Q12809 whole entry, looked up): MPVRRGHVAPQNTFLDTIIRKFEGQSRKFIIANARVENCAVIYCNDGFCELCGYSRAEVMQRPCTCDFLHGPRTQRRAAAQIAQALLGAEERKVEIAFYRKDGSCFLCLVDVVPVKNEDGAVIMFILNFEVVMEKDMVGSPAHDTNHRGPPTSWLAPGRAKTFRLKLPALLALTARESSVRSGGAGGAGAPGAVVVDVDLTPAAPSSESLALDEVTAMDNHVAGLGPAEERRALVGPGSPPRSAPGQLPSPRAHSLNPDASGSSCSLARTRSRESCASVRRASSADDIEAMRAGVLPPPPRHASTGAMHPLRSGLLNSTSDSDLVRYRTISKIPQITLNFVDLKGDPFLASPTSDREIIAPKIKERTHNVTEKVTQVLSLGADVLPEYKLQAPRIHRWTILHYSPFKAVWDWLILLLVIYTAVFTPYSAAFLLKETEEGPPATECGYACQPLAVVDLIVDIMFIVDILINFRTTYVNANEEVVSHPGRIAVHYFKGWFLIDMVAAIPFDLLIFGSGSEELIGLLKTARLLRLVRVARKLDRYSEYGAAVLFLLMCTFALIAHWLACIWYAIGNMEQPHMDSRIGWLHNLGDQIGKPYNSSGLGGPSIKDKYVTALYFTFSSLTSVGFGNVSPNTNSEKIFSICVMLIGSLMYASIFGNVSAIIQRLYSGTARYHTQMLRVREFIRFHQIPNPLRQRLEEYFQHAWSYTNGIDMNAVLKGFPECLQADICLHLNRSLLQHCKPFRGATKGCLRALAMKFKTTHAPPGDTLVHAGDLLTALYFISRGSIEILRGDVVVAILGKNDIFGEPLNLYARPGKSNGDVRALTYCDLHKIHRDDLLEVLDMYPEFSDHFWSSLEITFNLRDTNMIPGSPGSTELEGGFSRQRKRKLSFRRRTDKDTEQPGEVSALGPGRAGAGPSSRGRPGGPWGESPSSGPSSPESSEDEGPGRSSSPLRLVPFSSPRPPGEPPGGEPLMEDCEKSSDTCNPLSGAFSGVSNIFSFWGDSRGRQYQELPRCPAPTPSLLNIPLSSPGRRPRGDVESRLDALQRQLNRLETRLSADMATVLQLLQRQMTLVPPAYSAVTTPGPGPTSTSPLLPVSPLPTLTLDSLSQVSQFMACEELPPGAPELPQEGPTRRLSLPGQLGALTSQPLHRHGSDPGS

Structure (SMILES) | hERG current change (%, negative = inhibition) at 10uM
COC(=O)C(Cc1ccccc1)NC(=O)CNC(=O)c1ccccc1OC (centres unmarked) | 10.3%
O=C(COc1ccc(Cl)cc1)NNC(=O)c1ccccn1 | 0.692%
COc1ccc(S(=O)(=O)N2CCN(c3ccccc3OC)CC2)cc1C(=O)N1CCCCC1 | 7.51%
CCCOc1ccc(C(=O)ON=C2CCN(C)CC2)cc1.Cl | -9.07%
Oc1ccccc1N1CCN(c2ncnc3sc(-c4ccccc4)cc23)CC1 | -6.19%
COC(=O)c1cnc2c(C(F)(F)F)cccc2c1OC | -14.6%
Cc1ccc(NC(=O)C(C)N2C(=O)c3ccccc3C2=O)cc1C (centres unmarked) | 4.98%
Cc1cccc(C(=O)N2CCCC(N3CCN(c4ccccc4)CC3)C2)n1 (centres unmarked) | -2.91%
CCC(=O)Nc1cccc(NC(=S)NC(=O)c2ccccc2)c1 | -2.18%
O=C(NCC1CCCO1)c1onc(CSc2cccc(Cl)c2)c1C(=O)O (centres unmarked) | 5.54%
O=C(CSc1nc2ccccc2n1CC(=O)N1CCCC1)N1CCN(C(=O)c2ccco2)CC1 | -0.921%
Cc1ccc(C)c(NC(=O)c2ccccc2NC(=O)C2CCCO2)c1 (centres unmarked) | -0.135%
N#CC1=C(N)N2C(=C(C#N)C13CCCCC3)SC1CCCCC12O (centres unmarked) | 2.49%
O=C(Nc1ccc(NC(=O)C2CCCCC2)nc1)c1cccs1 | 9.16%
CCCCCN(C(=O)CCC(=O)OCC(=O)c1ccc(F)c(F)c1)c1c(N)n(CCCC)c(=O)[nH]c1=O | -33.7%
O=c1cc([O-])[n+]2c3n1CCCN3CCC2 | -13.3%
O=C(/C=C/c1ccc(OCc2ccccc2)c(OCc2ccccc2)c1)c1cccnc1 | -14.8%
CC(C)(C)c1cc(C(=O)Nc2ccc(F)cc2)n(Cc2ccc(F)cc2)n1 | 8.22%
O=C1COc2ccc(C(=O)COC(=O)CNS(=O)(=O)c3cccc(F)c3)cc2N1 | -10.4%
CC1C(=O)C(C)C(c2ccco2)NC1c1ccco1.Cl (centres unmarked) | 13.9%
Nc1ccc(Cl)c(NC(=O)c2cccs2)c1 | 5.51%
COC(=O)C1=C(c2cccc(OCc3ccccc3)c2)C[C@@H]2CC[C@H]1N2C(=O)NCc1ccc(Br)cc1 | 19.3%
COC(=O)C1=C(C(=O)OC)C(c2ccc(OC)c(OC)c2)c2sc(=O)[nH]c2S1 (centres unmarked) | -54.8%

Structure (SMILES) | hERG current change (%, negative = inhibition) at 10uM
Cc1cc(CNC(=O)C2(C(F)(F)F)CC(CCCO)CCCO2)nn1C (centres unmarked) | 7.56%
Cn1c(SCC(=O)Nc2ccc(Cl)cc2)nnc1C1CC1 | -4.96%
CN(C)C=NC(=O)c1cc(C(=O)c2ccccc2Cl)c[nH]1 | 16.8%
CC1CCN(C(=O)Cc2nn(C)c(=O)c3ccccc23)CC1 | 2.18%
c1cnn(-c2cncc(-n3cccn3)n2)c1 | 19.1%
CCOC(=O)c1c(CN(C)C)oc2cc(CN(C)C)c(O)c(CSc3ccccc3)c12.Cl | -19.3%
O=C(N/N=C/C=N/NC(=O)c1ccco1)c1ccco1 | 13.4%
CC1(C)OC(=O)CC1C(=O)NCc1ccccc1 (centres unmarked) | 9.98%
COc1cc(C(=O)N(CCCO)Cc2cc3ccc(C)c(C)c3[nH]c2=O)cc(OC)c1OC | -11.9%
COc1ccc(C2/C=C\CN(CC(C)C)CC(=O)N2Cc2ccc(F)cc2)cc1 (centres unmarked) | -6.03%
C[C@@H]1CC=C[C@H]2[C@H]1C(=O)N(Cc1ccccc1)[C@H]2c1ccc(-c2ccoc2)cc1F | 18.9%
Cc1ccc(N2C(=O)/C(=C\c3ccco3)SC2=S)cc1 | 24.5%
CCCOc1ccc(C(=O)N2CCCC2C(=O)O)cc1 (centres unmarked) | 8.5%
O=[N+]([O-])CCO | 16.3%
CC1CN=C(NCc2ccc(F)cc2)S1 (centres unmarked) | -8.5%
CC1(C)Cc2nc3oc4c(SCC(N)=O)ncnc4c3cc2CO1 | 4.95%
CC(C)(C)C(=O)NC1CC2CCCC(C1)N2C(=O)Nc1ccccc1 (centres unmarked) | 14.9%
O=[N+]([O-])CC(c1ccc(F)cc1)c1c[nH]c2ccccc12 (centres unmarked) | -13.1%
COc1ccc(CNC(=S)NC(C)CCc2ccccc2)cc1 (centres unmarked) | -40%
N#C/C(=C/c1ccccc1[N+](=O)[O-])c1nc(C2CC2)cs1 | -12.3%
COc1ccc(OC)c(NC(=O)Cc2csc(NC(=O)Nc3ccccc3OC)n2)c1 | -5.66%
S=C(NCCc1ccccc1)N/N=C/c1ccccc1Cl | 26.8%
Cc1cc(C)cc(-n2c3nc4ccccc4nc3c3c(=O)n(Cc4ccco4)cnc32)c1 | 6.26%

Structure (SMILES) | hERG current change (%, negative = inhibition) at 10uM
O=S(=O)(c1cccc(NC(=S)N2CCN(c3ccccc3F)CC2)c1)C(F)F | 16.4%
CC1(C)SC(=S)N(c2ccccc2)C1/[N+]([O-])=C/c1cccc([N+](=O)[O-])c1 (centres unmarked) | 16.4%
Cc1ccccc1Cn1nc(C)c(NC(=O)c2cc(CC(C)C)on2)c1C | -0.721%
Cc1nc2c([nH]1)C1(CCN(Cc3ccccc3)CC1)C(C#N)=C(N)O2.Cl | -52.5%
Cc1ccc(NCN2C(=O)C3CC=C(Cl)CC3C2=O)cc1 (centres unmarked) | 6.98%
Cc1cccc(CCN2C(N(C)C)=NC[C@@H]2CC(C)C)c1 | -18.1%
CCCCCCn1c(=O)c(C(=O)N/N=C/c2cccc(F)c2)c(O)c2ccccc21 | 14.8%
CCc1ccc(NC(=O)Nc2ccc3c(c2)CCC3)cc1 | 2.21%
CCCCCCOc1ccc(CN2CCN(CCO)CC2)cc1 | -42%
CCOC(=O)C1(CCCc2ccccc2)CCN(C(=O)CCn2cncn2)CC1 | -56.4%
O=C(OCC1OC(n2ccc(=O)[nH]c2=O)C(Cl)C1O)c1ccccc1 (centres unmarked) | -9.37%
O=C(Nc1ccccc1F)C1CC1c1ccccc1 (centres unmarked) | 3.92%
O=C(NC(=S)Nc1cc(S(=O)(=O)N2CCOCC2)ccc1O)c1ccco1 | 16.5%
O=C(CCNS(=O)(=O)c1cccc2nonc12)N1CCN(c2cccc(Cl)c2)CC1 | -50.6%
CCCCc1cn([C@@H](CCCCNC(=O)OC(C)(C)C)C(=O)N2CCN(C(=O)OC(C)(C)C)CC2)nn1 | -2.98%
O=C1/C(=C\c2ccccc2)SC(=S)N1CCC(=O)N1CCCCC1CCO (centres unmarked) | 0.682%
COc1ccc(-c2csc(NC(=O)CC(NC(C)=O)c3ccccc3)n2)cc1OC (centres unmarked) | -4.59%
CCc1ccc(/C=C2\SC(=S)N(CCCC(=O)Nc3ccccc3C(=O)O)C2=O)cc1 | 16.8%
COc1ccc(/C=C/c2nnc(NC(=O)COc3cccc(C)c3)s2)cc1 | 9.43%
CCOc1cc(C2C3=C(CC(C)(C)CC3=O)N(CCCOC)C3=C2C(=O)CC(C)(C)C3)ccc1O | 2.29%
CCCCNC(=O)Cn1c(=O)oc2cc(S(=O)(=O)N3CC(C)CC(C)C3)ccc21 (centres unmarked) | 9.3%
Cc1ccc(/C=N/NC(=O)c2cccnc2)s1 | 10.2%
O=C(NCc1ccccc1)C12CC3CC(CC(C3)C1)C2 | 4.58%

Structure (SMILES) | hERG current change (%, negative = inhibition) at 10uM
COc1cc(NC(=O)c2cc(-c3ccco3)on2)c(OC)cc1Cl | -22%
Cc1cc(N)c(C)c([N+](=O)[O-])c1C | 1.69%
CCOC(=O)c1oc2ccccc2c1CN1CC(C)OC(C)C1 (centres unmarked) | -0.576%
O=C(C1CCCC1)N1CCC(CC2CC(c3ccc(Cl)cc3)=NO2)(C(=O)NCC2CCCCC2)CC1 (centres unmarked) | -24.1%
CCN(CC)c1nc(Nc2ccc(Cl)cc2)nc(OCC#N)n1 | 12.8%
COc1ccccc1CN1CC(C(=O)NCc2cccnc2)CC1=O (centres unmarked) | -1.45%
Cc1cc(=O)oc2c(C)c(OCC(=O)N3CCN(c4ccccc4)CC3)ccc12 | -24.8%
Cc1ccccc1OCC(=O)N/N=C/c1ccncc1 | -7.48%
O=C(OCC(=O)N1CCCC1)c1ccccc1O | 24.2%
CC(C)(CO)NCc1cccs1.Cl | 11.3%
Cc1onc(-c2ccccc2Cl)c1C(=O)OCN1C(=O)c2ccccc2C1=O | -7.31%
COc1ccc(N2CCN(c3cc(C)c4ccccc4n3)CC2)cc1 | 3.95%
CC(=O)Nc1ccc(-n2c(C)ccc2C)cc1 | 16.3%
CCOC(=O)C(CC)n1nc(C)n2c(cc3occc32)c1=O (centres unmarked) | 13.9%
CCC1CCCCN1c1nc(-c2ccncc2)nc2ccccc12 (centres unmarked) | -42.5%
CC1(C)Cc2c(sc3c2c(=N)n(Cc2ccco2)c(=O)n3Cc2ccc(F)cc2)CO1 | -19.3%
CC1(C)Cc2c(sc3c2c(=N)n(Cc2ccco2)c(=O)n3CC(=O)Nc2ccc(Cl)cc2)CO1 | -6.02%
Clc1ccc(COn2nnc3ccccc32)c(Cl)c1 | 2.93%
CCN(CC)CC.CCN1C(=O)/C(=C2/Sc3ccccc3N2CCCS(=O)(=O)O)SC1=S | 4.01%
FC(F)Sc1ccc(NC(=S)NC2CCCC2)cc1 | 0.442%
